Among all 150,000 compounds or so, about 540 (0.36%) showed an effect of 50% or more. Some of the results follow.

This is an account of results in ChEMBL document CHEMBL4888484, “Replenishing the malaria drug discovery pipeline: Screening and hit evaluation of the MMV Hit Generation Library 1 (HGL1) against asexual blood stage Plasmodium falciparum ,using a nano luciferase reporter read-out” (2022).

The test has as its system Plasmodium falciparum. As to the kind of experiment: Primary screen in NF54 nanoGlo assay, in single point, at 2uM, 72h; a lower Z score goes with more inhibition. The format is functional, Erythrocyte. Conditions: timepoint 72 hour.
What is called % Inhibition is the change of the read-out against control, counted positive when it falls. Consider `CCc1nccc(CN2CCc3[nH]cnc3[C@@H]2c2cc3ccccc3o2)n1`, for which the “% Inhibition” value is -1% and the Z score turned out to be 0.24.

As to `CCC(C)(C)NC(=O)c1ccc(N(C)C)cc1`, the “% Inhibition” value is -1% and the Z score worked out at 0.09.

In the case of `CNc1snc(C)c1C(=O)N1CC[C@H](Oc2ccc(Cl)c(Cl)c2)C1`, the “% Inhibition” value was -1% and the Z score was 0.14.

Consider `Cc1n[nH]c([C@@H]2CN(Cc3ccnn3C3CCC3)CCO2)n1`, for which the “% Inhibition” value is on record as 2% and the Z score is -0.43.

Turning to `CC(c1ccc(Cl)cc1)C(C)N(C)C(=O)c1ccnc(C(=O)O)c1` (stereo not drawn), the “% Inhibition” value is -9% and the Z score is reported as 1.98.

For `CCc1nc(CN2C(=O)COc3ccc(S(=O)(=O)N4CCc5ccccc5C4)cc32)no1`, the “% Inhibition” value is -4% and the Z score was found to be 0.45.

With `Cn1cc([C@@H](O)C(=O)OCCOc2ccccc2F)cn1`, the “% Inhibition” value is listed as -1% and the Z score was found to be 0.08.

Turning to `CNC(=O)CNC(=O)c1ccc(F)cc1F`, the “% Inhibition” value was -1% and the Z score is 0.2.

For `CC(C)c1cc(C(=O)N2CCCCO2)nc(N)n1`, the “% Inhibition” value is -10% and the Z score was 1.41.

On to `COc1cccc(-c2nc(CN(CCO)[C@@]3(C)CCS(=O)(=O)C3)c(C)o2)c1OC`, for which the “% Inhibition” value is -6% and the Z score is reported as 0.79.

With `CC[C@H](C)N(Cc1c(-c2ccccc2F)noc1N1CCOCC1)C(=O)c1ccccc1F`, the “% Inhibition” value is 9% and the Z score was -1.47.

`O=C(Nc1nncs1)[C@@H]1CCCN1c1ncnc2sccc12`: the “% Inhibition” value was -6% and the Z score turned out to be 0.72.

With `CCOC1CC(N(C)c2nccc(-n3cccn3)n2)C1(CC)CC` (stereo not drawn), the “% Inhibition” value is reported as -4% and the Z score was 0.64.

Turning to `COc1ccc(CC(=O)N2CCC[C@H]2C(=O)N[C@@H]2CCCC[C@H]2N(Cc2cccc(C)c2)C(=O)c2ccc(OC)cc2)cc1`, the “% Inhibition” value was -4% and the Z score turned out to be 0.47.

On to `Cc1ccc(NC(=O)c2cnc3ccccn23)cc1N1C(=O)CNC1=O`, for which the “% Inhibition” value was -15% and the Z score is reported as 2.4.

Turning to `O=C([C@H]1CC(=O)N(c2cccc(-c3noc(C4CCC4)n3)c2)C1)N1CCN(c2ccccc2F)CC1`, the “% Inhibition” value is given as -11% and the Z score is 1.44.

In the case of `Cc1ccc(C)c2c(N)c3c(nc12)N(C)CCCC3`, the “% Inhibition” value is recorded as -2% and the Z score stood at 0.26.

As to `COC(=O)CC(NC(=O)C1CC(C)CCC1C(C)C)C(=O)OC` (stereo not drawn), the “% Inhibition” value came to 6% and the Z score was -0.74.

Turning to `CCOCCN(C)C(=O)Nc1sc(-c2ccccc2)nc1C`, the “% Inhibition” value was 4% and the Z score was -0.79.

In the case of `CCc1n[nH]c(C(=O)NCc2nc(C(F)(F)F)n[nH]2)c1C`, the “% Inhibition” value is given as -2% and the Z score is recorded as 0.35.

`C1CCC(N2CCC(c3nc([C@H]4CCOC4)no3)CC2)C1`: the “% Inhibition” value is recorded as 8% and the Z score is recorded as -0.73.

Consider `Cc1ccc(C[C@H](NC(=O)NCC2(O)CCC2)c2ccccn2)cc1`, for which the “% Inhibition” value is reported as -9% and the Z score is reported as 1.35.

In the case of `O=C([C@H]1CC(=O)N(c2ccccc2)C1)N1CCN(c2ccccn2)CC1`, the “% Inhibition” value is -14% and the Z score was found to be 1.33.

For the compound `CC(C)n1ncc2cc(NS(=O)(=O)c3ccc(F)c(Cl)c3)cnc21`, the “% Inhibition” value stood at 3% and the Z score is recorded as -0.29.

With `Cc1c(NC(=O)Nc2cccc(Cl)c2OC(C)C)cnn1CCO`, the “% Inhibition” value is -12% and the Z score was determined as 1.39.

Consider `C[C@H]1CN(C(=O)Nc2cccc(C(=O)NC3CC3)c2)CCCO1`, for which the “% Inhibition” value is -2% and the Z score is 0.32.

With `CN1CC[C@H](Oc2nccc(C(F)(F)F)n2)C1`, the “% Inhibition” value is listed as -20% and the Z score is on record as 2.87.

`Cc1nnc(CNC(=O)c2ccc(NC(=O)C3CCC3)cc2)o1`: the “% Inhibition” value was 2% and the Z score was -0.21.

In the case of `Cc1ccc(S(=O)(=O)N2CCC(CNC(=O)c3cnccn3)CC2)c(F)c1`, the “% Inhibition” value is -3% and the Z score is given as 0.49.

As for `FC(F)(F)c1nnc(N2CCC(n3cccn3)CC2)s1`, the “% Inhibition” value is given as -13% and the Z score is 2.01.

`Cc1ccc(N2CCCC2)c(C(=O)N2CCC[C@H](S(C)(=O)=O)C2)c1`: the “% Inhibition” value worked out at 2% and the Z score is on record as -0.24.

In the case of `Cn1c(=O)n(CCOc2ccc(Cl)cc2Cl)c2ccccc21`, the “% Inhibition” value is given as 7% and the Z score was -0.9.

`O=C(CCN1CCCCO1)N1CCO[C@@H](CCCc2ccccc2)C1`: the “% Inhibition” value is on record as 5% and the Z score is reported as -1.02.

Regarding `FC(F)(F)c1ccnc(N2CCN(C3CCN(C[C@H]4COc5ccccc5O4)CC3)CC2)c1`, the “% Inhibition” value is listed as -7% and the Z score was determined as 0.9.

Take `CCCCOc1ccccc1CN1CCN2C(=O)NC[C@H]2C1`: the “% Inhibition” value is reported as -10% and the Z score is 1.01.

Turning to `O=C(Nc1ccccn1)c1n[nH]c2c1COc1ccccc1-2`, the “% Inhibition” value was -16% and the Z score was determined as 2.1.

Turning to `Cc1n[nH]c(C)c1CCCN[C@@H](C)CC(F)(F)F`, the “% Inhibition” value was 4% and the Z score is recorded as -0.68.

In the case of `CC1CC1NC(=O)[C@@H]1C[C@@H](O)CN1C(=O)OCc1ccccc1` (stereo partly drawn), the “% Inhibition” value is -4% and the Z score was determined as 0.64.

Take `Cc1cc(C)c([C@H]2NC(=O)N(Cc3nonc3C)C2=O)c(C)c1`: the “% Inhibition” value was -4% and the Z score is recorded as 0.66.

Consider `CC(C)C(NC(=O)CN1CCCC1C(=O)O)c1ccc(F)cc1` (stereo not drawn), for which the “% Inhibition” value is on record as -12% and the Z score is 1.59.

As for `Cc1ccc(C#N)c(NCC2CCC3(CCOCC3)C2O)n1` (stereo not drawn), the “% Inhibition” value is -17% and the Z score came out at 1.98.

With `O=C(c1ccn2nnnc2c1)N1CC(C(F)(F)F)C1`, the “% Inhibition” value is given as -13% and the Z score stood at 1.8.

On to `COc1ccccc1N1CCN(C(=O)C2CCN(S(=O)(=O)Cc3ccccc3Cl)CC2)CC1`, for which the “% Inhibition” value is -14% and the Z score is reported as 2.65.

For the compound `COc1ccc([C@@H]2CCON2Cc2ccccc2Cl)cc1`, the “% Inhibition” value is listed as -3% and the Z score stood at 0.37.

Regarding `O[C@H]1[C@H](NCC2CCCCC2)[C@H]2CO[C@H](O2)[C@@H]1n1cccn1`, the “% Inhibition” value was -7% and the Z score amounted to 1.39.

On to `FC(F)(F)c1cccc(C2(c3nnc(Cc4cccc5ccccc45)o3)CCOCC2)c1`, for which the “% Inhibition” value was -17% and the Z score stood at 2.49.

As to `Cc1ccccc1CNC(=O)[C@H]1CCCN(c2nc3ccc(Cl)cc3[nH]2)C1`, the “% Inhibition” value stood at 9% and the Z score is listed as -1.55.

For the compound `CN(CC(=O)Nc1ccc(Cl)cc1C#N)S(C)(=O)=O`, the “% Inhibition” value was -5% and the Z score was found to be 0.84.

Turning to `CCc1nc(C)cc(NCC2(COC)CCC2)n1`, the “% Inhibition” value is -9% and the Z score was 1.65.

Turning to `Cc1ccc(C2=NN(c3cc(C)nc(-c4ccccc4)n3)C(=O)C2)cc1`, the “% Inhibition” value worked out at 10% and the Z score is -1.8.

Regarding `CCc1cc(CNC(=O)[C@@]2(C)CC2(Cl)Cl)[nH]n1`, the “% Inhibition” value is on record as 1% and the Z score is -0.09.

In the case of `COc1cc(-c2ccccc2)ccc1CN1CCC[C@H]1c1nncn1C`, the “% Inhibition” value was 3% and the Z score is -0.35.

With `O=C(Cc1ccon1)N[C@H]1CCCOc2c1ccc1ccccc21`, the “% Inhibition” value is -3% and the Z score worked out at 0.4.

In the case of `CCc1nc(NC(=O)COC[C@H]2CCCN(C(=O)OC(C)(C)C)C2)sc1C`, the “% Inhibition” value is reported as -7% and the Z score stood at 1.39.
